Reference: patent publication US7235262B2, “Use of bioactive fraction from cow urine distillate (‘Go-mutra’) as a bio-enhancer of anti-infective, anti-cancer agents and nutrients” (Council of Scientific and Industrial Research, priority 2000, dated 2007)

Tested on: Escherichia coli
Experiment: Broth assay for bio-enhancement of antibiotic killing, Gram-negative bacterium
Conditions: cow urine distillate 1 μl/mL

Row | SMILES | Survival fraction of viable cells upon treatment with antibiotic + cow urine distillate combination (antibiotic 10 μg/ml) | Survival fraction of viable cells upon treatment with antibiotic + cow urine distillate combination (antibiotic 30 μg/ml) | Survival fraction of viable cells upon treatment with antibiotic + cow urine distillate combination (antibiotic 4 μg/ml) | Survival fraction of viable cells upon treatment with antibiotic + cow urine distillate combination (antibiotic 6 μg/ml) | Survival fraction of viable cells upon treatment with antibiotic + cow urine distillate combination (antibiotic 8 μg/ml)
1 | CO[C@H]1/C=C/O[C@@]2(C)Oc3c(C)c(O)c4c(O)c(c(/C=N/N5CCN(C)CC5)c(O)c4c3C2=O)NC(=O)/C(C)=C\C=C\[C@H](C)[C@H](O)[C@@H](C)[C@@H](O)[C@@H](C)[C@H](OC(C)=O)[C@@H]1C [Rifampicin] | 0.17 | 0.007 | – | – | –
2 | CC1(C)S[C@@H]2[C@H](NC(=O)[C@H](N)c3ccccc3)C(=O)N2[C@H]1C(=O)O [Ampicillin] | – | – | 0.60 | 0.02 | 0.01
